Results on 50 molecules are retold here after PubChem BioAssay AID1508624 (National Center for Advancing Translational Sciences (NCATS), 2021).

The campaign covered roughly 48,000 compounds. About 120 (0.25%) were called active. Another 4% or so got no clear call; they are omitted. Calls come from the whole dose curve; as a rule, active = well fitted activation curve with a large enough effect; inconclusive = small, poorly fitted or top-dose-only effect, or another doubt; inactive = no such curve, though single readings can be large or run the other way. The list shows a part of the results, in another mix than the full data. The source gives no active or inactive call for entries shown without one.

The nature of this assay: Primary qHTS for Identification of Small Molecule Activators of Huntingtin-Antisense Promoter Activity. Note: nearly all actives have a fitted effect of over 55% in size. Particulars: HEK293 HTT-AS promoter firefly luciferase reporter, 24 h; activity change, positive = activation: at 57.5 µM (top of the series), percent change from vehicle, -100% = no light. The method, boiled down:
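HEK293 luciferase promoter-reporter cells (2,500/well) plated 24 h, then compounds added at up to 57.5 uM final for 24 h at 37 °C. Firefly luminescence by Dual-Glo, normalized to vehicle (0%) and zero RLU (-100%).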
(In general: Quantitative high-throughput screening tests each substance at several concentrations.)
Consider `CSc1cccc(NC(=O)CC(c2ccc(F)cc2)N2Cc3ccccc3C2=O)c1` (stereo not given), for which the activity change, positive = activation was -51.1%.
The result for `Cn1c(=O)n(C)c2cc(N3CCOCC3)c(NS(=O)(=O)c3ccc(Br)cc3)cc21` reads 6.42%; that for `O=C(Nc1ccc(F)cc1F)c1cc(-c2ccc3c(c2)OCO3)on1`, 24.2%; that for `Cc1cccc(OCC(=O)Nc2cccc(-c3nc4ccccc4s3)c2)c1`, 76.7%.
Regarding `CCOc1ccccc1NC(=O)c1ccc(C(=O)Nc2ccccc2OCC)cc1`, the activity change, positive = activation came out at 0.155%.
Turning to `CCc1cccc(C)c1NC(=O)c1nc2ccccc2nc1N1CCCCC1`, the “activity change, positive = activation” value is inactive: -2.99%.
Take `COc1ccc(C2C(=O)N(C3CCCCCC3)CC(=O)N2Cc2ccccc2)cc1` (stereo not given): the activity change, positive = activation was -26%.
As to `CCCCNC(=O)c1cc(-c2ccc(Cl)c(Cl)c2)on1`, the activity change, positive = activation was found to be 23.1%.
Turning to `Cc1ccc(NC(=O)c2ccc3c(c2)NC(=O)c2ccccc2S3)cc1`, the activity change, positive = activation was -45.9%.
As for `COc1ccc(-c2cc(C(=O)Nc3sc4c(c3C(N)=O)CCC(C)C4)no2)cc1` (stereo not given), the figure is -4.12%; as for `Cn1c(=O)[nH]c(=O)c2c1nc(NCCO)n2CC(O)COc1ccccc1` (stereo not given), 2.94%; as for `COc1ccc(-c2cc(C(=O)N3CCN(c4ccc(F)cc4)CC3)no2)cc1OC`, -7.43%.
As to `O=S(=O)(Nc1cccc(-c2ccc(N3CCOCC3)nn2)c1)c1ccccc1C(F)(F)F`, the activity change, positive = activation turned out to be 6.19%.
Consider `Cc1ccccc1NC(=O)c1c(NC(=O)C(F)(F)F)sc2c1CCCCC2`, for which the “activity change, positive = activation” value was inactive: -96.1%.
With `COc1ccc(OC)c(S(=O)(=O)Nc2cccc(-c3ccc(N4CCCCCC4)nn3)c2)c1`, the activity change, positive = activation amounted to 6.51%.
As to `O=C(C1CCN(S(=O)(=O)Cc2ccccc2)CC1)N1CCN(c2ccccc2F)CC1`, the activity change, positive = activation was determined as 0.56%.
In the case of `CCc1ccccc1OCCSc1nnc(-c2cc(OC)c(OC)c(OC)c2)o1`, the activity change, positive = activation is -9.41%.
For the molecule `COc1ccc(S(=O)(=O)Nc2cccc(-c3ccc(N4CCCC4)nn3)c2)cc1OC`, the activity change, positive = activation is 2.51%.
For `COc1ccc(-c2cc(C(=O)Nc3sc4c(c3C#N)CCCC4)no2)cc1OC`, the activity change, positive = activation is 5.61%.
On to `CCCc1cc(C(=O)Nc2c(C)nn(Cc3ccc(Cl)c(Cl)c3)c2C)no1`, for which the activity change, positive = activation was -36%.
For the molecule `Cc1ccc(C(=O)c2sc(Nc3ccc(F)cc3)nc2N)c(C)c1`, the activity change, positive = activation was 9.81%.
On to `CCN1CCOC(=O)C1CC(=O)Nc1cc(Cl)ccc1C` (stereo not given), for which the “activity change, positive = activation” value was inactive: -15.2%.
For the molecule `CCOC(=O)c1cccc(NC(=O)CC2C(=O)N(c3ccc(F)cc3)C(=O)N2Cc2cccc(OC)c2)c1` (stereo not given), the activity change, positive = activation was -10.8%.
For the molecule `Cc1nn(-c2ccc(N3CCOCC3)nn2)c(C)c1CCC(=O)Nc1ccc(F)cc1F`, the activity change, positive = activation is 27%.
As to `Cc1cc(C)cc(OCCSc2nc(-c3cccs3)nc3cc(=O)[nH]n23)c1`, the activity change, positive = activation is -0.815%.
In the case of `Cc1ccc(S(=O)(=O)Nc2nc3ccccc3nc2Nc2ccc3nsnc3c2)cc1`, the “activity change, positive = activation” value was inactive: -26.8% [at 25.1 µM, percent change from vehicle, -100% = no light].
Take `CCc1nn(CC(=O)NCCCc2ccccc2)c(=O)c2cc3c(OC)cccc3n12`: the activity change, positive = activation was -0.756%.
For `CC(=O)c1ccc(NC(=O)c2cc(-c3ccc4c(c3)OCO4)on2)cc1`, the activity change, positive = activation came out at 3.06%.
On to `Cc1ccc2nc(N3CCN(c4cccc(Cl)c4)CC3)c3nnnn3c2c1`, for which the activity change, positive = activation is -2.13%.
For the molecule `N#CSCC(=O)O`, the “activity change, positive = activation” value was inactive: 0.446%.
The result for `Cc1onc(-c2c(F)cccc2Cl)c1C(=O)Nc1ccc(OC(C)C)cc1` reads inactive: -7.99%; that for `COc1cc(C2C(=O)N(C3CCCCC3)CC(=O)N2CCC2=CCCCC2)ccc1OC(C)C` (stereo not given), -6.05%; that for `Cc1cc(C)cc(NC2=C(c3ccccc3)C(=O)c3ccccc32)c1`, -37.3%.
As for `Cc1ccc(NC(=O)c2cc3c(=O)n(Cc4ccco4)ccc3nc2C)cc1C`, the activity change, positive = activation is -18.2%.
With `CCOC(=O)c1c(NC(=O)c2cc(CC(C)C)on2)sc(C(C)=O)c1C`, the activity change, positive = activation was -8.17%.
`Cc1ccc(NC(=O)c2c(C)oc3ccc(O)c(CN4CCOCC4)c23)c(C)c1`: the activity change, positive = activation was -8.3%.
As for `COc1ccc(CCNC(=O)c2cnc3sc(N4CCCCC4)nn3c2=O)cc1OC`, the figure is -1.33%; as for `CCOC(=O)c1c(-c2ccccc2)csc1NC(=O)c1cc(-c2ccc(C)c(F)c2)on1`, -1.73%; as for `CCOc1cccc(OCCCn2c(-c3ccc(Br)cc3)nc3ccccc3c2=O)c1`, -0.398%.
In the case of `Cc1ccc(Cl)cc1N1CCN(C(=O)c2ccc3nc(N4CCC(C)CC4)sc3c2)CC1`, the “activity change, positive = activation” value was inactive: -78.6%.
On to `Cc1ccccc1Cn1nc(C)c(NC(=O)c2cc(CC(C)C)on2)c1C`, for which the activity change, positive = activation is -25.5%.
Turning to `Cn1cnc2c(=O)oc3ccc(S(=O)(=O)N4CCN(c5ccccc5F)CC4)cc3c21`, the activity change, positive = activation was -15.7%.
For the molecule `COc1ccccc1-c1cc(C(=O)NCCc2ccccc2)no1`, the activity change, positive = activation stood at 42.4%.
As to `CCOC(=O)c1ccc(NC(=O)CC2C(=O)N(c3ccc(C)cc3)C(=O)N2C2CCCC2)cc1` (stereo not given), the activity change, positive = activation is -33.1%.
For `COC(=O)CN1C(=O)CSc2ccc(S(=O)(=O)Nc3c(C)cc(C)cc3C)cc21`, the activity change, positive = activation is -7.52%.
In the case of `CCc1ccc(NC(=O)c2c(C(=O)Nc3ccccc3)sc3nc(C)cc(=O)n23)cc1`, the activity change, positive = activation is -11.3%.
The result for `COc1cccc(-c2cc(C(=O)N3CCN(c4ccc(F)cc4)CC3)no2)c1` reads -4.21%; that for `Cc1ccc(Cc2nc3ccccc3nc2SCC(=O)NCCc2ccccc2)cc1`, inactive: -14.6%.
With `C=C(C)Cn1c(SCC(=O)Nc2cccc(Cl)c2)nc2sc3c(c2c1=O)CCCC3`, the activity change, positive = activation is -10.1%.
Regarding `COc1cc(NC(=O)c2cc(-c3cccc(Cl)c3)on2)c(OC)cc1Cl`, the activity change, positive = activation worked out at 0.426%.
